# Screen size: about 150,000 compounds; about 540 (0.36%) showed an effect of 50% or more. The list shows a part of the results.
# Tested on: Plasmodium falciparum
# Assay: Primary screen in NF54 nanoGlo assay, in single point, at 2uM, 72h; a lower Z score goes with more inhibition
# Assay type: functional, Erythrocyte
# Details: timepoint 72 hour
SMILES,% Inhibition [%],Z score
O=c1[nH]c(NC2CCCCC2)nc(=O)c2c1ncn2CCCc1ccccc1,-1,0.16
CCn1ncc(C)c1NC(=O)CN1CCOC1=O,-7,1.38
COc1ccc(C(=O)N2CC(n3cc(C(=O)N(C)C)nn3)C2)cc1F,-9,1.67
O=C1CC[C@]2(C(=O)Nc3ccc(F)cc3)CCCC=C2N1C1CCCC1,4,-0.6
CCc1ncc(CN2CCC[C@H](NC(=O)CN3CCOC3=O)CC2)cn1,9,-1.74
N#Cc1ccc(OC[C@H](O)COc2cccc(-n3ccnc3)c2)cc1,-21,1.9
COc1ccc(Nc2cc(Nc3ccc(OC)cc3)n(C(=O)C3CCCCC3)n2)cc1,26,-2.95
COCCN1C(=O)N[C@@](Cc2ccccc2Cl)(C2CCN(C(=O)C(=O)CC(C)C)CC2)C1=O,10,-1.88
COCCCCN1CCN(C(=O)c2[nH]cnc2C)CC1,-18,1.93
CC(C)n1nnnc1N1CCN(C(=O)C(=O)NC2CC2)CC1,-3,0.63
Cc1cnn(Cc2c(C(=O)N3C[C@H]4CCCC(=O)N[C@H]4C3)noc2C)c1,31,-3.49
Cc1cccc(C(=O)N2CC3(C[C@@H](c4nnc(-c5ccccc5)o4)N(C)C3)C2)n1,10,-1.16
CC1=CCN(C(=O)Nc2cc(N3CCOCC3)ccc2Cl)CC1,-1,0.06
O=C(Nc1ccc2c(c1)OCCCO2)c1csc(-c2cccs2)n1,-28,3.31
O=C(c1cc(Cl)ccc1Cl)N1CC[C@H](c2ccccn2)C1,-5,0.87
Cc1cnc(C(=O)N2CCC(c3nc4cc(Cl)ccc4o3)CC2)c(O)c1,-5,0.79
c1nc(N[C@@H]2COCC[C@@H]2OCc2cscn2)c2sccc2n1,-12,1.18
O=C(Cc1c[nH]c2ccccc12)N1CCc2nocc2C1,-13,1.67
C[C@]1(O)CCN(c2cccc(C#N)n2)C[C@H]1Cc1ccccc1,-11,1.42
CCS(=O)(=O)N1CC(=O)N(Cc2ccccc2Cl)[C@](C)(C(=O)NCc2ccccc2OC)C1,-17,2.17
COc1ccc(C(=O)NCCc2c[nH]c3ccccc23)cc1OC1CCN(C(C)C)CC1,-8,1.53
CCS(=O)(=O)N1C[C@H](c2nc(-c3ccc(F)cc3)no2)C2(CCOCC2)C1,-3,0.64

# Reference: ChEMBL document CHEMBL4888484, “Replenishing the malaria drug discovery pipeline: Screening and hit evaluation of the MMV Hit Generation Library 1 (HGL1) against asexual blood stage Plasmodium falciparum ,using a nano luciferase reporter read-out” (2022)
